According to the supplement of paper PMC3334620:
The full ranking holds about 33,000 sequences; the median of “E-score (-0.5 to 0.5)” is about -0.01, and the highest 2% start at about 0.26. The list shows a part of the results.

Biological target: Ste12 (UniProt P13574)
Test: PBM E-score (8-mer binding enrichment) (E-score (-0.5 to 0.5)); higher = stronger / more preferred TF binding; most listed sequences are background and not binding sites
Details: protein concentration: 200 nM; construct: GST-DNA-binding domain
Summary of the method: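 Masliner-normalised scans of fluorescent anti-GST signal were the basis for scoring. That signal came from GST-tagged yeast transcription factors applied at about 100-200 nM to double-stranded universal all-10-mer Agilent arrays on fresh or once-stripped slides. Each ungapped eight-base word, pooled with its reverse complement, received an E-score from the Universal PBM Analysis Suite.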

Sequence	PBM E-score
ATTATCAG	0.0839
AGATGTAC	-0.11
ATTAAATA	0.292
ATACAGGC	0.063
CCTGCAAC	0.101
CTCTACAC	-0.11
ACCAGGTC	-0.0684
AGACGAAC	0.00631
GGGCTCAC	-0.243
CATGTGGA	-0.047
ATCACACC	0.116
CGATTCAA	0.0422
ACGAATCT	0.165
GCCACAAA	0.0992
CAGACCGA	0.072
CTTGATCA	0.12
AAGGTCCC	-0.279
ACGGTAAC	0.155
ATCCGGGA	-0.12
GCTCTGAA	0.0178
AGTGTCCG	-0.151
ATAGTCAC	0.0501
AGGATATC	-0.109
ATCTGAAT	0.0272
CCGTTGCC	-0.253

Sequence	PBM E-score
CCCGGCGC	-0.132
AGGGGGAG	-0.182
AGCCGTTG	-0.24
ACTGAAGA	0.142
AAATCCTA	0.229
AGAACCGG	0.012
ACGCCTCC	-0.166
ATCCCCAG	-0.149
CACCGAAA	0.146
CTCACAGC	-0.0675
ACCAATTG	-0.0793
ATCTGCGG	0.0963
CATAGGAG	0.0327
ACTAACCA	0.114
GCGCCTAA	-0.0168
ACCCGACG	0.0962
AGAGATTA	0.132
AGTCATTG	-0.0744
CCACGGCA	0.14
TCAGGCCA	0.0237
AGTGTTAG	0.0172
TAAGGCAA	0.0326
ATACCTTA	0.128
AGCGGAAA	0.123
ACTCTCAT	-0.141

Sequence	PBM E-score
CCATGTAA	0.0304
AGATACCA	0.155
CCGAACTC	-0.0154
AGTGCAGG	-0.0794
GGCTGTCA	-0.245
ACAGGGAG	-0.087
GAATCTGA	-0.0846
TCACACAA	0.0137
AACGCACG	0.146
ACAATTTA	0.163
ATGCGACA	0.24
ACACCCTC	-0.0664
GGCCGGCC	0.0742
GCGAACGA	-0.0265
CTTCTGCA	-0.0176
AATCCCGG	0.0977
GGCAGCAA	0.0858
CTTGCGGC	-0.217
CTCCAGGC	-0.185
GATCCGAC	-0.176
ACTCGGCT	-0.0881
CGGCAGCC	0.224
AATCTTAC	0.117
AGTCCATA	-0.0853
CGTATTCC	0.073

Sequence	PBM E-score
GCAGACCC	-0.168
CATGGTGG	-0.0711
AACTCGGA	0.0603
AGACGTCA	-0.137
CTTTCCAA	0.186
AAGCACAT	-0.0896
AAGATGTC	-0.0718
AATCGTGT	0.0806
AAGTTTGA	0.221
CACGAGCC	-0.0409
ACGTCCGA	-0.0639
AGTCTTAC	-0.132
AGCTTGCA	-0.163
AATTTAAC	0.208
CACACTAC	-0.066
GTCCCGTA	-0.156
ATCCACGG	-0.125
CCGTATCC	-0.0568
CATGTGCC	-0.0606
AATTTGCA	-0.0162
GCGTAACA	-0.0008
GTCAAACA	0.0675
CCCATGGC	-0.138
CAGGGGCA	-0.11
CTCCTTCA	-0.185

Sequence	PBM E-score
AGGGATAT	-0.0901
AGTTTGTG	-0.0309
CTCATGAA	0.1
ATAAACAA	0.13
ATTATTCG	0.21
ACCCCGTG	0.0718
CGTAATAC	0.0163
CCGCTGGA	-0.0851
CGAGCGAG	0.145
GTAAGGAA	-0.17
TTAAAAAA	0.294
GTAGCATA	0.0916
CGCATACC	0.125
AAGGCATG	-0.186
AGGCGTAA	-0.193
AAACCTGT	0.00578
ACTAGCAT	-0.0896
ACATATTC	0.09
CAGACGGA	0.0125
CTCAATTA	0.189
CGACACGA	0.159
AACGAAGC	0.0326
CCTTCTCC	-0.0919
CCAACGTC	0.00728
ATCCTCAT	-0.106

Sequence	PBM E-score
AGGCAGTC	-0.245
GGTCCGCA	-0.111
ACCTGCAT	-0.146
CTAATAAG	-0.0045
AGGTTGAC	0.134
AAGGATTA	0.0233
GTACATTA	0.0532
CTAGTTAC	0.0278
AACTTGCG	-0.0915
ATCAGACA	0.111
AACGGGCT	-0.0831
GGTGATTA	0.0267
ACCCTCCA	-0.0426
AATCGGCC	-0.0936
CCGATCCA	-0.0596
AGCAACCG	-0.187
CATCAGGG	-0.0388
CACGCTGG	-0.226
CAAGTACA	-0.0437
CTGACTTC	0.0769
GGCCCCAC	-0.181
AAAGTTTC	0.329
GAGTCGCA	-0.168
CAGGTGAG	-0.199
GGCAATGA	-0.192

Sequence	PBM E-score
CCCGAGCA	-0.0155
CGGACAAC	0.0563
ATAGTGAA	0.0898
GAGTACAA	-0.0915
GGAATCAA	0.0809
ACACGCCC	-0.0615
GACATGGC	-0.244
CATACCCG	0.148
GACCCGGA	-0.116
CCAAGTGC	-0.206
GTAATGCA	-0.225
TCCCAAGA	-0.0561
GACCGGCA	-0.0447
GTGATGAA	0.0296
ACCTACAC	-0.023
ACACGGGT	-0.0408
ATTCAGTA	0.0571
ATGTCTTA	0.134
CCAGCTAA	-0.153
CCAGAGTC	-0.161
GTAACGCA	0.107
AAAAGCTG	-0.0886
ACAAACAT	0.0989
CGAACGGA	0.0575
CACATGAC	-0.0466

Sequence	PBM E-score
AATAATGT	0.14
GTCTGGGA	-0.135
AAATAGAA	-0.0326
CCCTTGGC	-0.274
AAATATTC	0.14
GGGTAACC	-0.0955
CGAGTAAA	0.0807
AGGTGTAG	-0.149
CATGCAGA	-0.145
AATCGTAT	0.0969
CTAGGCTA	-0.00684
AGCGGCAC	-0.16
CGCGTTTC	0.234
AGCGGTGC	-0.014
GATATTAC	0.185
AGAACACG	0.0904
AACGCGTA	0.0194
GGCGTTGA	-0.0188
CAACACAG	0.116
GTTACTGA	-0.0623
GGCCGAGA	-0.0889
TGCTGGAA	-0.0637
ACCTTGCC	-0.0234
ACGCCAAC	-0.0312
GAGTCGCC	-0.332

Sequence	PBM E-score
ACTATTCC	0.172
ATGTGCGG	-0.0669
GGTACTGA	-0.134
CGGTTGAG	-0.0435
AAGTCGGT	-0.0505
GCGCTAAA	0.0404
GTTCGTTA	0.0617
CGATTTAG	0.072
GGCACTAC	-0.233
AAACTGCA	0.223
CGCTCTAG	-0.0816
CAGGACGA	-0.108
AGGTTCCC	-0.258
AATTGACC	0.0858
CGCACTAG	-0.0304
CTATCCCC	-0.00854
CAGTATTA	0.196
ACGAGAAT	0.0807
AACATCCC	0.0232
GGGACGCA	-0.162
AACTTTTC	0.185
AGGGCCGG	-0.132
AACTGGGC	-0.0934
AAGTAGGG	-0.00371
CAACCTAC	0.066

Sequence	PBM E-score
ACAATTGT	0.0466
ACCTATGA	-0.21
CCCTATCA	-0.06
CGAGCGAC	-0.173
AAGCATCT	-0.0846
AGTAACCA	0.035
AACCACTC	0.0388
AATATCCG	0.00579
GTCAGTAA	-0.0544
AACTAACA	0.0419
CATCCCTA	-0.18
CCTACTGC	-0.156
GTCTACAC	-0.0612
ACCGGAAG	0.0939
AGAGCTAT	-0.234
ACAGGAAA	0.164
ACCTCGAA	0.121
ACATGATA	0.12
CCGGGGAC	-0.25
GTCTATCA	0.0622
ATTAGCCA	0.0809
ACGTAGCC	-0.363
ATTTAAGA	0.0744
ACATTACC	-0.119
GTACCCCA	-0.0685

Sequence	PBM E-score
CTACGTCC	-0.134
ACAGGGCT	-0.283
GGGCTTAC	0.0112
AAGGTGTG	0.0808
CCCCTCAA	0.0476
AATTCACG	0.0745
CATGGGCA	-0.114
GTGCAGCA	-0.228
GCCACCTA	-0.0287
AATCCAAA	0.14
CCCGTGGC	-0.139
AGGTTACA	0.0287
GCAAGTGA	0.0518
TAGGACAA	-0.189
ACAGAATA	0.0915
GAATACAC	-0.0531
GCTGTTCA	-0.183
ATGCCAAG	-0.0789
CCAACTCG	0.0213
ACGGGTTA	-0.29
CCCGAGGC	-0.0534
CTATGGCC	-0.193
CCTGCCGA	-0.0578
TCCATAGA	0.0463
GTACACTA	-0.182

Sequence	PBM E-score
TCACAAAA	0.271
CTTGTGTC	0.0731
CCCGGGAC	-0.0101
ACACACCC	-0.0126
TGGATAAA	0.135
ACGTATCC	-0.19
CGTTGTCC	0.13
CCCTGGAA	-0.294
AGCACGGA	-0.223
CATACCAC	-0.0801
CCGCGTGC	-0.187
AGGTTCAT	-0.0202
CGTAACTC	-0.151
AGAAGACC	-0.135
GATTAAAA	0.234
CACATGGC	-0.0321
AAGTTACA	0.204
ACAAATGG	0.181
CTGTACTA	0.0185
CTACACGC	-0.191
AGCTATCC	-0.177
TAGTGTGA	0.0481
AGTCGCGA	0.143
CGACTCAG	0.0362
AGGATCAA	0.101

Sequence	PBM E-score
ATAATCTG	-0.0844
AAATCCCT	-0.0174
ACCCCACC	0.373
CAAGATCA	-0.178
CTTTCTAA	0.0574
ATACCCCA	0.139
ACTTACTA	0.065
GGCCATAA	-0.0428
CCGGATAC	-0.099
AATACATC	0.156
AGCGGCTC	-0.0004
AATCTGGA	0.116
AATACGAC	-0.0208
CGAGAGAG	-0.0495
GGCGGCCC	-0.204
AACATTCA	0.0972
GTCGTTGA	-0.283
CCATTAGG	-0.313
CGAACGAG	-0.116
CATTATTA	0.228
CACCGCGG	0.0619
ACCTCACA	0.0386
ACCTCGAG	0.0675
CCTTAAAC	0.127
CGGACCGA	0.121

Sequence	PBM E-score
CAAAGGCG	-0.14
ATTGTGAA	0.184
TGGGGACA	-0.0566
GAGTCTCA	0.0444
AGACATTA	-0.00915
CAGCCCCA	0.0237
CCTATGAA	-0.0321
GGATACAA	0.00408
GCAAGGTA	-0.00401
GCAAACAC	-0.0961
CCCTCGGC	-0.0768
GAGTCTCC	-0.172
CAAATCTA	0.084
CTGTTCTC	-0.0358
CGCGAACC	-0.0421
CGACAAAG	0.0569
AAGTTTTC	0.0212
ATTCCTGC	-0.0553
GAATGAAC	0.016
